# The supplement of paper PMC4604168 (melanoma cell lines)
# The other results are listed elsewhere or left out. Many values rest on one well or one pass, so single values are uncertain.
# Key:
# Assay in all cases: cell count relative to DMSO control; melanoma cells; higher = more viable cells
# Conditions in all cases: library dose: standard library concentration; 72 h
# SkMel28 = test system: SkMel28
# SkMel2 = test system: SkMel2
# SkMel30 = test system: SkMel30
# SkMel5 = test system: SkMel5
# UACC257 = test system: UACC257
# UACC62 = test system: UACC62
# WM115 = test system: WM115
# WM1716 = test system: WM1716
# WM1745 = test system: WM1745
# WM3526 = test system: WM3526
# 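Also: cells treated in 1,536-well plates, then fixed and DAPI-stained, with nuclei counted from automated high-throughput microscope images.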
smiles,measurement,setting,value
"CC(C)C[C@H](NC(=O)[C@H](Cc1ccccc1)NC(=O)c1cnccn1)B(O)O [Bortezomib] + N.N.[Cl][Pt][Cl] [cisplatin] (first compound 0.005 µM, partner dose 8 µM)",cell count,SkMel28,23.7%
same,cell count,SkMel2,46.9%
same,cell count,SkMel30,27.3%
same,cell count,SkMel5,20.7%
same,cell count,UACC257,81.3%
same,cell count,UACC62,61.5%
same,cell count,WM115,16.5%
same,cell count,WM1716,16.3%
same,cell count,WM1745,12.9%
same,cell count,WM3526,34.7%
"Cc1cc(Nc2cc(N3CCN(C)CC3)nc(Sc3ccc(NC(=O)C4CC4)cc3)n2)n[nH]1 [Tozasertib] + N.N.[Cl][Pt][Cl] [cisplatin] (first compound 0.03 µM, partner dose 8 µM)",cell count,SkMel28,72.3%
same,cell count,SkMel2,99.2%
same,cell count,SkMel30,103%
same,cell count,SkMel5,89.5%
same,cell count,UACC257,88.9%
same,cell count,UACC62,83.3%
same,cell count,WM115,99.7%
same,cell count,WM1716,79.3%
same,cell count,WM1745,80.1%
same,cell count,WM3526,78%
"CO[C@H]1C[C@@H]2CC[C@@H](C)[C@@](O)(O2)C(=O)C(=O)N2CCCC[C@H]2C(=O)O[C@H]([C@H](C)C[C@@H]2CC[C@@H](OCCO)[C@H](OC)C2)CC(=O)[C@H](C)/C=C(\C)[C@@H](O)[C@@H](OC)C(=O)[C@H](C)C[C@H](C)/C=C/C=C/C=C/1C [everolimus] + C[As](C)SC[C@H](NC(=O)CC[C@H](N)C(=O)O)C(=O)NCC(=O)O [Darinaparsin] (first compound 0.1 µM, partner dose 2 µM)",cell count,SkMel28,35.2%
same,cell count,SkMel2,59.5%
same,cell count,SkMel30,61.5%
same,cell count,SkMel5,37.1%
same,cell count,UACC257,93.7%
same,cell count,UACC62,49.1%
same,cell count,WM115,51.1%
same,cell count,WM1716,51.3%
same,cell count,WM1745,66.2%
same,cell count,WM3526,52.7%
"O=C(O)C(=O)Nc1sc2c(c1C(=O)O)CCNC2 + O=C(Oc1ccc([N+](=O)[O-])cc1)N1CCC(C(O)(c2ccc3c(c2)OCO3)c2ccc3c(c2)OCO3)CC1 [JZL184] (first compound 8.33333 µM, partner dose 5 µM)",cell count,SkMel28,61.2%
same,cell count,SkMel2,96.6%
same,cell count,SkMel30,103%
same,cell count,SkMel5,104%
same,cell count,UACC257,73.4%
same,cell count,UACC62,110%
same,cell count,WM115,108%
same,cell count,WM1716,102%
same,cell count,WM1745,132%
same,cell count,WM3526,76.1%
"Cn1c(Nc2ccc(C(F)(F)F)cc2)nc2cc(Oc3ccnc(-c4ncc(C(F)(F)F)[nH]4)c3)ccc21 + O=C(Oc1ccc([N+](=O)[O-])cc1)N1CCC(C(O)(c2ccc3c(c2)OCO3)c2ccc3c(c2)OCO3)CC1 [JZL184] (first compound 0.4 µM, partner dose 5 µM)",cell count,SkMel28,40.2%
same,cell count,SkMel2,45.3%
same,cell count,SkMel30,59.9%
same,cell count,SkMel5,31.9%
same,cell count,UACC257,71%
same,cell count,UACC62,44.8%
same,cell count,WM115,42.1%
same,cell count,WM1716,67.9%
same,cell count,WM1745,61.8%
same,cell count,WM3526,43.3%
"O=C(CCCCCCC(=O)Nc1ccccc1)NO [vorinostat] + Cc1cc(SCc2sc(-c3ccc(C(F)(F)F)c(F)c3)nc2C)ccc1OCC(=O)O [GW0742] (first compound 0.4 µM, partner dose 10 µM)",cell count,SkMel28,78.1%
same,cell count,SkMel2,98.8%
same,cell count,SkMel30,84.2%
same,cell count,SkMel5,82.2%
same,cell count,UACC257,74.7%
same,cell count,UACC62,72%
same,cell count,WM115,101%
same,cell count,WM1716,97%
same,cell count,WM1745,99.5%
same,cell count,WM3526,74.8%
"O=C(CCCCCCC(=O)Nc1ccccc1)NO [vorinostat] + C/C(O)=C(\C#N)C(=O)Nc1cc(Br)ccc1Br [LFM-A13] (first compound 0.4 µM, partner dose 10 µM)",cell count,SkMel28,54.3%
same,cell count,SkMel2,91.3%
same,cell count,SkMel30,81%
same,cell count,SkMel5,85.3%
same,cell count,UACC257,64.4%
same,cell count,UACC62,74%
same,cell count,WM115,99.9%
same,cell count,WM1716,117%
same,cell count,WM1745,77%
same,cell count,WM3526,82.3%
"c1cc(-c2cnn3cc(-c4ccc(OCCN5CCCCC5)cc4)cnc23)ccn1 [Dorsomorphin] + O=C(Oc1ccc([N+](=O)[O-])cc1)N1CCC(C(O)(c2ccc3c(c2)OCO3)c2ccc3c(c2)OCO3)CC1 [JZL184] (first compound 2 µM, partner dose 5 µM)",cell count,SkMel28,58.7%
same,cell count,SkMel2,94.9%
same,cell count,SkMel30,87.6%
same,cell count,SkMel5,58.5%
same,cell count,UACC257,81.5%
same,cell count,UACC62,52.8%
same,cell count,WM115,76%
same,cell count,WM1716,94.6%
same,cell count,WM1745,40.9%
same,cell count,WM3526,63.6%
"O=C(O)c1ccc2c(c1)nc(Nc1cccc(Cl)c1)c1ccncc12 + C[As](C)SC[C@H](NC(=O)CC[C@H](N)C(=O)O)C(=O)NCC(=O)O [Darinaparsin] (first compound 2 µM, partner dose 2 µM)",cell count,SkMel28,68.4%
same,cell count,SkMel2,74.1%
same,cell count,SkMel30,70.6%
same,cell count,SkMel5,57.8%
same,cell count,UACC257,78.4%
same,cell count,UACC62,85.5%
same,cell count,WM115,52.8%
same,cell count,WM1716,69.8%
same,cell count,WM1745,64.3%
same,cell count,WM3526,49.4%
"Cc1cc(Nc2cc(N3CCN(C)CC3)nc(Sc3ccc(NC(=O)C4CC4)cc3)n2)n[nH]1 [Tozasertib] + Cn1cc(C2=C(c3cn(C4CCN(Cc5ccccn5)CC4)c4ccccc34)C(=O)NC2=O)c2ccccc21 [Enzastaurin] (first compound 0.03 µM, partner dose 4 µM)",cell count,SkMel28,59.9%
same,cell count,SkMel2,100%
same,cell count,SkMel30,88.2%
same,cell count,SkMel5,91%
same,cell count,UACC257,78.8%
same,cell count,UACC62,69.4%
same,cell count,WM115,74.5%
same,cell count,WM1716,79.2%
same,cell count,WM1745,67.9%
same,cell count,WM3526,90.1%
"Cn1c(Nc2ccc(C(F)(F)F)cc2)nc2cc(Oc3ccnc(-c4ncc(C(F)(F)F)[nH]4)c3)ccc21 + C/C(O)=C(\C#N)C(=O)Nc1cc(Br)ccc1Br [LFM-A13] (first compound 0.4 µM, partner dose 10 µM)",cell count,SkMel28,29.3%
same,cell count,SkMel2,58.6%
same,cell count,SkMel30,65.2%
same,cell count,SkMel5,37.3%
same,cell count,UACC257,75.4%
same,cell count,UACC62,50.8%
same,cell count,WM115,45.5%
same,cell count,WM1716,71.4%
same,cell count,WM1745,60.4%
same,cell count,WM3526,40.3%
